{"source": "the supplement of paper PMC8728848", "assay_in_all_cases": "glycan array binding signal (z-score within array); higher = stronger binding", "conditions_in_all_cases": "glycan notation: IUPAC condensed, linker removed", "key": {"[1]": {"molecular_target": "GlcNAc(a1-4)Gal(b1-4)GlcNAc(b1-3)Gal(b1-4)Glc", "method_in_brief": "(§1)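 The binding signal is a Z-score computed within each array and averaged over linkers. Arrays of the same protein sequence at different concentrations or buffers were also averaged together. Data originate from 3228 arrays in the Consortium for Functional Glycomics database, kept only where the protein sequence was available.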"}, "[2]": {"molecular_target": "GlcNAc(a1-4)Gal(b1-4)GlcNAc(b1-3)Gal(b1-4)GlcNAc", "method_in_brief": "as §1"}, "[3]": {"molecular_target": "GlcNAc(a1-4)Gal(b1-4)GlcNAc(b1-3)Gal(b1-4)GlcNAc(b1-3)Gal(b1-4)GlcNAc", "method_in_brief": "as §1"}, "[4]": {"molecular_target": "GlcNAc(a1-4)Gal(b1-4)GlcNAc(b1-3)Gal(b1-4)[Fuc(a1-3)]GlcNAc(b1-3)Gal(b1-4)[Fuc(a1-3)]GlcNAc", "method_in_brief": "as §1"}, "[5]": {"molecular_target": "GlcNAc(a1-6)Gal(b1-4)GlcNAc", "method_in_brief": "as §1"}, "[6]": {"molecular_target": "GlcNAc(b1-2)Gal(b1-3)GalNAc", "method_in_brief": "as §1"}, "[7]": {"molecular_target": "GlcNAc(b1-2)Man(a1-3)[GlcNAc(b1-2)Man(a1-6)]Man(b1-4)GlcNAc(b1-4)GlcNAc", "method_in_brief": "as §1"}, "[8]": {"molecular_target": "GlcNAc(b1-2)Man(a1-3)[GlcNAc(b1-2)Man(a1-6)]Man(b1-4)GlcNAc(b1-4)[Fuc(a1-6)]GlcNAc", "method_in_brief": "as §1"}, "[9]": {"molecular_target": "GlcNAc(b1-2)Man(a1-3)[GlcNAc(b1-4)][GlcNAc(b1-2)Man(a1-6)]Man(b1-4)GlcNAc(b1-4)GlcNAc", "method_in_brief": "as §1"}, "[10]": {"molecular_target": "GlcNAc(b1-2)[GlcNAc(b1-4)]Man(a1-3)[GlcNAc(b1-2)Man(a1-6)]Man(b1-4)GlcNAc(b1-4)GlcNAc", "method_in_brief": "as §1"}, "[11]": {"molecular_target": "GlcNAc(b1-2)[GlcNAc(b1-4)]Man(a1-3)[GlcNAc(b1-4)][GlcNAc(b1-2)Man(a1-6)]Man(b1-4)GlcNAc(b1-4)GlcNAc", "method_in_brief": "as §1"}, "[12]": {"molecular_target": "GlcNAc(b1-2)[GlcNAc(b1-4)]Man(a1-3)[GlcNAc(b1-4)][GlcNAc(b1-2)[GlcNAc(b1-6)]Man(a1-6)]Man(b1-4)GlcNAc(b1-4)GlcNAc", "method_in_brief": "as §1"}, "[13]": {"molecular_target": "GlcNAc(b1-2)[GlcNAc(b1-6)]Man(a1-6)[GlcNAc(b1-2)Man(a1-3)]Man(b1-4)GlcNAc(b1-4)GlcNAc", "method_in_brief": "as §1"}, "[14]": {"molecular_target": "GlcNAc(b1-2)[GlcNAc(b1-6)]Man(a1-6)[GlcNAc(b1-2)Man(a1-3)][GlcNAc(b1-4)]Man(b1-4)GlcNAc(b1-4)GlcNAc", "method_in_brief": "as §1"}, "GlcNAc(b1-3)Gal": {"molecular_target": "GlcNAc(b1-3)Gal", "method_in_brief": "as §1"}, "[15]": {"molecular_target": "GlcNAc(b1-3)Gal(b1-3)GalNAc", "method_in_brief": "as §1"}, "GlcNAc(b1-3)Gal(b1-4)Glc": {"molecular_target": "GlcNAc(b1-3)Gal(b1-4)Glc", "method_in_brief": "as §1"}, "[16]": {"molecular_target": "GlcNAc(b1-3)Gal(b1-4)GlcNAc", "method_in_brief": "as §1"}, "[17]": {"molecular_target": "GlcNAc(b1-3)Gal(b1-4)GlcNAc(b1-3)Gal(b1-4)GlcNAc", "method_in_brief": "as §1"}, "GlcNAc(b1-3)GalNAc": {"molecular_target": "GlcNAc(b1-3)GalNAc", "method_in_brief": "as §1"}, "GlcNAc(b1-3)Man": {"molecular_target": "GlcNAc(b1-3)Man", "method_in_brief": "as §1"}, "[18]": {"molecular_target": "GlcNAc(b1-3)[GlcNAc(b1-4)][GlcNAc(b1-6)]GlcNAc", "method_in_brief": "as §1"}, "[19]": {"molecular_target": "GlcNAc(b1-3)[GlcNAc(b1-6)]Gal(b1-4)GlcNAc", "method_in_brief": "as §1"}, "[20]": {"molecular_target": "GlcNAc(b1-3)[GlcNAc(b1-6)]GalNAc", "method_in_brief": "as §1"}, "[21]": {"molecular_target": "GlcNAc(b1-4)Gal(b1-4)GlcNAc", "method_in_brief": "as §1"}, "GlcNAc(b1-4)GlcNAc": {"molecular_target": "GlcNAc(b1-4)GlcNAc", "method_in_brief": "as §1"}, "[22]": {"molecular_target": "GlcNAc(b1-4)GlcNAc(b1-4)GlcNAc", "method_in_brief": "as §1"}, "[23]": {"molecular_target": "GlcNAc(b1-4)GlcNAc(b1-4)GlcNAc(b1-4)GlcNAc(b1-4)GlcNAc", "method_in_brief": "as §1"}, "[24]": {"molecular_target": "GlcNAc(b1-4)GlcNAc(b1-4)GlcNAc(b1-4)GlcNAc(b1-4)GlcNAc(b1-4)GlcNAc", "method_in_brief": "as §1"}, "[25]": {"molecular_target": "GlcNAc(b1-4)[GlcNAc(b1-6)]GalNAc", "method_in_brief": "as §1"}, "[26]": {"molecular_target": "GlcNAc(b1-6)Gal(b1-4)GlcNAc", "method_in_brief": "as §1"}, "GlcNAc(b1-6)GalNAc": {"molecular_target": "GlcNAc(b1-6)GalNAc", "method_in_brief": "as §1"}, "GlcNAc3Prop(b1-4)GlcNAc": {"molecular_target": "GlcNAc3Prop(b1-4)GlcNAc", "method_in_brief": "as §1"}, "[27]": {"molecular_target": "GlcNAc6S(b1-3)Gal(b1-4)GlcNAc", "method_in_brief": "as §1"}, "Kdn(a2-3)Gal(b1-3)GalNAc": {"molecular_target": "Kdn(a2-3)Gal(b1-3)GalNAc", "method_in_brief": "as §1"}, "Kdn(a2-3)Gal(b1-3)GlcNAc": {"molecular_target": "Kdn(a2-3)Gal(b1-3)GlcNAc", "method_in_brief": "as §1"}}, "note": "This is one part of the list.", "data": [{"binder": "Tap1 (Sordaria macrospora), Q50IV4 (protein) MSHHHHHHHHYTLHLRLINDTSDTLTLVEQTSWWGKNTIWSQVRSTGVHVLSMAASGSSGMLRFQTSKGDFFAVAVGVHNYKRWCDVLVDTADEAPLTKLHPKYYDDKDAKYQALWAQASEFEAKSKSGKTVRIKFYQADGNVLRATVEYL", "values": [{"measurement": "glycan array binding signal (z-score)", "setting": "[1]", "value": -0.223}, {"measurement": "glycan array binding signal (z-score)", "setting": "[2]", "value": -0.21}, {"measurement": "glycan array binding signal (z-score)", "setting": "[3]", "value": -0.205}, {"measurement": "glycan array binding signal (z-score)", "setting": "[4]", "value": 0.762}, {"measurement": "glycan array binding signal (z-score)", "setting": "[5]", "value": -0.244}, {"measurement": "glycan array binding signal (z-score)", "setting": "[6]", "value": 2.86}, {"measurement": "glycan array binding signal (z-score)", "setting": "[7]", "value": -0.13}, {"measurement": "glycan array binding signal (z-score)", "setting": "[8]", "value": -0.216}, {"measurement": "glycan array binding signal (z-score)", "setting": "[9]", "value": -0.237}, {"measurement": "glycan array binding signal (z-score)", "setting": "[10]", "value": -0.234}, {"measurement": "glycan array binding signal (z-score)", "setting": "[11]", "value": -0.249}, {"measurement": "glycan array binding signal (z-score)", "setting": "[12]", "value": -0.237}, {"measurement": "glycan array binding signal (z-score)", "setting": "[13]", "value": -0.236}, {"measurement": "glycan array binding signal (z-score)", "setting": "[14]", "value": -0.248}, {"measurement": "glycan array binding signal (z-score)", "setting": "GlcNAc(b1-3)Gal", "value": -0.244}, {"measurement": "glycan array binding signal (z-score)", "setting": "[15]", "value": 2.84}, {"measurement": "glycan array binding signal (z-score)", "setting": "GlcNAc(b1-3)Gal(b1-4)Glc", "value": -0.241}, {"measurement": "glycan array binding signal (z-score)", "setting": "[16]", "value": -0.246}, {"measurement": "glycan array binding signal (z-score)", "setting": "[17]", "value": -0.248}, {"measurement": "glycan array binding signal (z-score)", "setting": "GlcNAc(b1-3)GalNAc", "value": 1.62}, {"measurement": "glycan array binding signal (z-score)", "setting": "GlcNAc(b1-3)Man", "value": -0.237}, {"measurement": "glycan array binding signal (z-score)", "setting": "[18]", "value": -0.246}, {"measurement": "glycan array binding signal (z-score)", "setting": "[19]", "value": -0.248}, {"measurement": "glycan array binding signal (z-score)", "setting": "[20]", "value": -0.007}, {"measurement": "glycan array binding signal (z-score)", "setting": "[21]", "value": -0.233}, {"measurement": "glycan array binding signal (z-score)", "setting": "GlcNAc(b1-4)GlcNAc", "value": -0.175}, {"measurement": "glycan array binding signal (z-score)", "setting": "[22]", "value": -0.256}, {"measurement": "glycan array binding signal (z-score)", "setting": "[23]", "value": -0.258}, {"measurement": "glycan array binding signal (z-score)", "setting": "[24]", "value": -0.248}, {"measurement": "glycan array binding signal (z-score)", "setting": "[25]", "value": -0.248}, {"measurement": "glycan array binding signal (z-score)", "setting": "[26]", "value": -0.251}, {"measurement": "glycan array binding signal (z-score)", "setting": "GlcNAc(b1-6)GalNAc", "value": 0.273}, {"measurement": "glycan array binding signal (z-score)", "setting": "GlcNAc3Prop(b1-4)GlcNAc", "value": -0.239}, {"measurement": "glycan array binding signal (z-score)", "setting": "[27]", "value": -0.007}, {"measurement": "glycan array binding signal (z-score)", "setting": "Kdn(a2-3)Gal(b1-3)GalNAc", "value": 3.63}, {"measurement": "glycan array binding signal (z-score)", "setting": "Kdn(a2-3)Gal(b1-3)GlcNAc", "value": -0.055}]}]}
